Binding signal data for 14 molecules are collected here from article PMC12136788.

Some of the results follow.

To fix the notation:
T1: UNK ZnF1-3 (human, UniProt Q9C0B0 31-174)
T1 sequence: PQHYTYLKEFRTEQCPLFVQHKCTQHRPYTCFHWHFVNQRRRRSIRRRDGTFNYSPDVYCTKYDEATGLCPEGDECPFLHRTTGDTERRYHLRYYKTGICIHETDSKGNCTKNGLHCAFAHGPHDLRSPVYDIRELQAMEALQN

B1: chr11:10818680:10818681:-_ENSG00000110321_ENST00000525681|hu_hu|motif|central (ssRNA)
RNA: GGGAGUUCUACAGUCCGACGAUCUAUAUAAAAUCAGGGCAUGAACAUGACUUGAUAAAUUAAGUAGACUUAAUUUCAAUACGGUAAUAGGAGGGACCAAUUCAAAUUCUCACCAUUUGUUUCACACCCACAAAAACCACUUCACAACAGAGGAUUGAGCAUCA
B2: chr10:94818082:94818083:+_ENSG00000138190_ENST00000260762|hu_mus|motif|central (ssRNA)
RNA: GGGAGUUCUACAGUCCGACGAUCCUACGUGUGCUGGGACAUACCAGUCACCAAGCCUCUGAGCUGUCUCACCACUGUCUCGGUCAGCUUCUGUCUGUCUCGGUCAUUCUUCCGGAACUGGGCGAAUAUGUUAUUCUUCUUGCUCAACAGAGGAUUGAGCAUCA
B3: chr2:120151847:120151848:-_ENSMUSG00000027291_ENSMUST00000028752|mus_mus|FALSE|FALSE (ssRNA)
RNA: GGGAGUUCUACAGUCCGACGAUCCUUGGACUUGAUGGUGGGAGUGCCCUCCAUGAGCGGGGAGGUGCUGGACUGGUGAUCCGAGUCAUUCAGCUUCUUUACCAACUGGCUCCGUUUCUGUGUCAGGUAGUCAAUGAGAGCUAACAACAGAGGAUUGAGCAUCA
B4: chr8:117878989:117878990:-_ENSG00000164754_ENST00000297338|hu_hu|hu_hu_hu_mus_True|28_38 (ssRNA)
RNA: GGGAGUUCUACAGUCCGACGAUCCCAGAGGCCCUCGUUUACUGAGGACAAAAUGUGCGUAGAACAUUUUUCUUAUUUGCUAUGAAAUAAGAAGAAAACCUUGCUCUCCGCUGGGAGCGGGAGGGGUGGGUGGCCCGGGGAGGGCAACAGAGGAUUGAGCAUCA
B5: chr3:10015032:10015033:+_ENSMUSG00000027533_ENSMUST00000029046|mus_mus|mus_mus_mus_hu_True|1_8 (ssRNA)
RNA: GGGAGUUCUACAGUCCGACGAUCGUUUUUACCAUCACAAGUGAUGAUACAAUCUGGCUUGGCCAUUGCGCCCAUUUUUCGCAAAGCUAUUCCCACUCCUAGCUCCUUCAUGUAUUCAUCAAAGCCUUGGCUUUCCAUCAGGCGCAACAGAGGAUUGAGCAUCA
B6: 14025072_14025192_4080_CDS_ENSMUSG00000068036_ENSMUST00000139666|mouse|control|control (ssRNA)
RNA: GGGAGUUCUACAGUCCGACGAUCACUCUUGGUCAGAGUGGAAGCAGGGGUAACUGACUUGGAAGAAUGGUUCAGGUGUUCCUGGCUGGAUGUGCUGGAUUCCACUGAGGAGCUCUGAUUGAUCCACAUAUCACUGUCACACUUCAACAGAGGAUUGAGCAUCA
B7: 80334887_80335007_2594_3pUTR_ENSG00000156052_ENST00000286548|human|control|control (ssRNA)
RNA: GGGAGUUCUACAGUCCGACGAUCAACCAAUGUUCCUGGCAGACUUCAUUGAACUUAAAGAACCACUGAGAGUAAAACUGGUUUCAAAUAAAGAGACAUAAACAGAUUUCCUGUUAAACCACACAGGAUACUUUUUACAUUGCCCAACAGAGGAUUGAGCAUCA
B8: chr10:121026873:121026874:-_ENSMUSG00000034667_ENSMUST00000039810|mus_hu|FALSE|FALSE (ssRNA)
RNA: GGGAGUUCUACAGUCCGACGAUCUCUUUUGUAGAAUACAUAUUGGCGUUGAAACAGUUUAAAGAAAUGAAAUGGCUAUCUACAAAAAGUUAGUUUUGAUUGCUGUCUUCCCCCAUACUUUGUGUCUUCACACAUAAAGAAAAUCAACAGAGGAUUGAGCAUCA
B9: chrX:100910778:100910779:-_ENSG00000184867_ENST00000356824|hu_hu|FALSE|FALSE (ssRNA)
RNA: GGGAGUUCUACAGUCCGACGAUCAACACACACUCCAGAUGUAGUGCAUAAGUAAAAAAGGGAACCUUUAUUGAAUUCUCUAUAGUUAAACACUUCUGCUCUGAGAUUGUCAUAGAUAAUCUCAAAUAGAGUAAGGGCAUUAAUCAACAGAGGAUUGAGCAUCA
B10: chr4:140556289:140556290:+_ENSMUSG00000036622_ENSMUST00000037055|mus_mus|mus_mus_mus_hu_False|18_78 (ssRNA)
RNA: GGGAGUUCUACAGUCCGACGAUCGAUGGAGCUCACCAGGCCCCCUUUUGCCGUGCAGAACCCUGUCCGGGUCACCACUGCCAGGACGUGCGGUCCCACAUAGGCCCGGGCCUGCAAAAUGAGGGUGCCGCAGAAGAGUGUGUGCAACAGAGGAUUGAGCAUCA
B11: chr17:64801638:64801639:+_ENSG00000154229_ENST00000413366|hu_mus|hu_hu_hu_mus_False|78_108 (ssRNA)
RNA: GGGAGUUCUACAGUCCGACGAUCUAUAAAUACAUAUACAUAUGUACACAUAUAUAGUAAGAGCCUAGUUAAACGUGUAAAGUAGCCAUUCAUUUUUAAAAUUACAUCUACAUUAAAAAAUUAAUAUAUCUGAUAGAGUGCCAGCAACAGAGGAUUGAGCAUCA
B12: chr21:38595834:38595835:-_ENSG00000157538_ENST00000309117|hu_hu|motif|central (ssRNA)
RNA: GGGAGUUCUACAGUCCGACGAUCCAUUAAAAAUGGUUUCUUCCUUUAAAAUUUCCCAGAAAGUGUGGCCUCUGUUUUCUGCGGCUCAGUUUAAACACAUCAUCAAGGAUAGAUAAUUAAUGUCAGGUGAGCAUAAAAGGAGAUCAACAGAGGAUUGAGCAUCA
B13: chr1:213302989:213302990:+_ENSG00000136643_ENST00000366960|hu_hu|FALSE|FALSE (ssRNA)
RNA: GGGAGUUCUACAGUCCGACGAUCAGAAGCAACAGCCCCUAGUGCUGAAGAAUCCGAAGAAAGAUUGAGACCAAAAGUUCUAAUGGGAGAAUUUUGAUUGGAAGCCAUUCCAUCAUCUAACUCAGCAAGAGAAUCCACAUCAACCAACAGAGGAUUGAGCAUCA
B14: chr5:67074945:67074946:+_ENSMUSG00000029223_ENSMUST00000031131|mus_mus|FALSE|FALSE (ssRNA)
RNA: GGGAGUUCUACAGUCCGACGAUCUCGCCCAUCGAGCUCGUACAGAUGGCCGUCCACGUUGUUGAACAGAAUAAAAUGGAAAUUCACUUUGUCAUCUACCCGACACUGGCCCUCCUGGGCCACGGAGUCAUGGGCCGCCUGGAUCAACAGAGGAUUGAGCAUCA

The experiment has as its target T1, UNK ZnF1-3. As to the kind of experiment: nsRBNS (natural sequence RNA bind-n-seq); RBNS binding buffer (assumed for nsRBNS): 25 mM Tris pH 7.5, 150 mM KCl, 3 mM MgCl2, 0.01% Triton X-100, 500 ug/ml BSA, 20 U/ml SUPERase-In, 4 C; UNK is unkempt and MSI1 is Musashi-1; names of the RNAs are library labels; protein concentration not given here; high values mean tight binding.
In turn, B1 yielded a binding signal of 1.61 enrichment R.

B2 displayed a binding signal of 0.438 enrichment R.

Molecule B3 showed a binding signal of 0.603 enrichment R.

On to B4, for which the binding signal came to 1.25 enrichment R.

Molecule B5 gave a binding signal of 0.669 enrichment R.

Molecule B6 displayed a binding signal of 0.874 enrichment R.

On to B7, for which the binding signal is 0.998 enrichment R.

In turn, B8 showed a binding signal of 1.11 enrichment R.

Consider B9, for which the binding signal was found to be 0.694 enrichment R.

In turn, B10 showed a binding signal of 1.23 enrichment R.

Molecule B11 gave a binding signal of 2.15 enrichment R.

As to B12, the binding signal came to 1.39 enrichment R.

B13 gave a binding signal of 2.3 enrichment R.

The molecule B14 came in with a binding signal of 0.99 enrichment R.
